About 14,000 (4.5%) of roughly 310,000 compounds showed an effect of 50% or more. Effects have a minus sign here. The list shows a part of the results.
Biological target: human ether-à-go-go-related gene (hERG) potassium channel (human, UniProt Q12809)
Experiment: primary screen, population patch clamp on CHO cells stably expressing hERG
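Also: peak tail current of the secondary pulse compared with the same well before compound.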

human ether-à-go-go-related gene (hERG) potassium channel, sequence (Q12809 whole entry, looked up): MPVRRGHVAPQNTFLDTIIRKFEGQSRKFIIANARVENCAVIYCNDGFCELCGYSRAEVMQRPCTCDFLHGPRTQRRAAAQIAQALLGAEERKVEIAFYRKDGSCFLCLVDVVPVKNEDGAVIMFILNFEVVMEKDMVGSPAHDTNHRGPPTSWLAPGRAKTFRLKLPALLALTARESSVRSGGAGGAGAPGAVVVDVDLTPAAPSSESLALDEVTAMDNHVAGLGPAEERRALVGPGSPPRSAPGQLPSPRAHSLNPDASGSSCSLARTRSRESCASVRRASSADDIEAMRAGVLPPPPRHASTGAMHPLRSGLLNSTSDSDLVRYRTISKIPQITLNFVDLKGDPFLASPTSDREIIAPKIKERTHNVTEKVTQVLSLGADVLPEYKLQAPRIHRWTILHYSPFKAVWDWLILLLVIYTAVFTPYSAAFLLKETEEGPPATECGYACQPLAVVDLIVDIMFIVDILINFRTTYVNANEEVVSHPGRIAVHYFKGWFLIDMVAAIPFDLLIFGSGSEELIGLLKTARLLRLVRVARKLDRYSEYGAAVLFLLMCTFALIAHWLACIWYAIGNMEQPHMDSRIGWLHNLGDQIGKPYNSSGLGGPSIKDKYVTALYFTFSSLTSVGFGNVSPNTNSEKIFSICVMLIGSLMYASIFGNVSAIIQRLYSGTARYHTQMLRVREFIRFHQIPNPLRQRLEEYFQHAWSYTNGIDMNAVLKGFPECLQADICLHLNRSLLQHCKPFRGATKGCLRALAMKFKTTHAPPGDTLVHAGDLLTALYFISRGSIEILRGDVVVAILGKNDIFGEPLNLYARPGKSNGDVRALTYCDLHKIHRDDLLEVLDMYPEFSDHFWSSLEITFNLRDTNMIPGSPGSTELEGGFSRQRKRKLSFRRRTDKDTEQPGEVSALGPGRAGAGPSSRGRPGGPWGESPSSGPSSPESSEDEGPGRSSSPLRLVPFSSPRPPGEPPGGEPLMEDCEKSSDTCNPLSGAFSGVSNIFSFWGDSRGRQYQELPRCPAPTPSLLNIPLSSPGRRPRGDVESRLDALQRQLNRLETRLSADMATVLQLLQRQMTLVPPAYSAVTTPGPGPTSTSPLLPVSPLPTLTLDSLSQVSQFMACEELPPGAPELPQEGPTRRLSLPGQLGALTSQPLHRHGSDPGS

Row | Structure (SMILES) | hERG current change (%, negative = inhibition) at 10uM [%]
1 | CCOC(=O)C1(CCOC)CCN(CC(C)Cc2ccc3c(c2)OCO3)CC1 (stereo not shown) | -43.1
2 | CCOc1ccc(CN2CCNC(=O)C2CC(=O)N(C)CC2CCOCC2)cc1 (stereo not shown) | 9.99
3 | Cc1ccc(C(=O)NC(=S)NNC(=O)CCN2CCOCC2)cc1 | 17.1
4 | O=C(O)c1c(C(=O)N2N=C3/C(=C/c4ccccc4)CCCC3C2c2ccccc2)cccc1[N+](=O)[O-] (stereo not shown) | 10.6
5 | COc1ccc(-c2cc(C(=O)Nc3cc(C)n(Cc4ccc(Cl)cc4)n3)no2)cc1OC | -9.8
6 | O=[N+]([O-])c1cccc(C=Nc2cc3c(cc2Br)OCCO3)c1 | 8.6
7 | CCOC(=O)C1=C(c2ccccc2)NC(=O)NC1c1ccc(OCC#N)c(OC)c1 (stereo not shown) | -0.477
8 | Cc1ccc(S(=O)(=O)N2CCOCC2)cc1C(=O)Nc1cccc(C(=O)NC2CC2)c1 | -3.11
9 | O=S(=O)(NCC1CCCO1)c1ccc(NS(=O)(=O)c2ccc(F)cc2)cc1 (stereo not shown) | 14.6
10 | COCCNc1nc2nonc2nc1NC(C)c1ccccc1Cl (stereo not shown) | 13.3
11 | CC1C(=O)Nc2ccccc2N1C(=O)c1ccc(F)cc1 (stereo not shown) | 15.7
12 | O=C(O)CCC(=O)N1CCN(c2nc(-c3ccccc3)c3ccccc3n2)CC1 | 13.7
13 | COc1ccccc1N1C(=O)C2C3C=CC(C3)C2(C)C1=O (stereo not shown) | 7.91
14 | Cn1cnnc1SCC(=O)Nc1c(F)cc(F)cc1Br | 10.9
15 | CCc1nnc(NC(=O)CSc2nc(-c3ccccc3)c(-c3ccccc3)o2)s1 | 5.01
16 | CC(C)[C@H](NC(=O)[C@@H]1CSCN1C(=O)OC(C)(C)C)C(=O)NCC1CCC(C(=O)O)CC1 (stereo partly shown) | 10.2
17 | Cn1c(=O)[nH]c(=O)c2c1nc(Br)n2CC(O)COCc1ccccc1 (stereo not shown) | -2.34
18 | CCc1ccccc1NC(=O)C(CC)Sc1nc2cc3c(cc2c(=O)n1Cc1ccco1)OCO3 (stereo not shown) | 17.1
19 | CCOc1ncccc1C(=O)NCc1ccc(C)cc1 | -3.68
20 | Cc1ccccc1NC(=O)Cc1nc(COC(=O)c2ccc(C(F)(F)F)cc2)cs1 | 5.88
21 | COCCCNC(=O)CNC(=S)N(Cc1ccc(F)cc1)C1CCCCC1 | -8.59
22 | CC1(C)C(=O)OC(c2cccn2-c2cccc([N+](=O)[O-])c2)C2(CCCCC2)C1=O (stereo not shown) | -18.3
23 | CCOc1ccc(-c2nnn(CC(=O)Nc3ccccc3OC)n2)cc1OCC | 3.2
24 | Cn1c(N2CCN(C(c3ccccc3)c3ccccc3)CC2)nc2ccccc21 | -51.7
25 | Cc1cccc(NC(=O)CSc2nc3ccccc3nc2N2CCCC2)c1 | 1.02
26 | Cc1ccc(S(=O)(=O)N2CCC(C(=O)NNS(=O)(=O)c3ccc(Cl)cc3)CC2)cc1 | -0.444
27 | Cc1ccccc1CC1(CO)CCCN(C(=O)c2cccc(Cl)c2)C1 (stereo not shown) | 1.01
28 | Cc1ccccc1CCN1CCCC(CN(C)C(=O)c2ccc3ncccc3c2)C1 (stereo not shown) | -30.3

Row | Structure (SMILES) | hERG current change (%, negative = inhibition) at 10uM [%]
29 | CCCCCOC(=O)Cn1c(=O)oc2ccccc21 | 0.0173
30 | Cc1ccc(S(=O)(=O)N2CCCOC2CNC(=O)C(=O)NCCN2CCOCC2)cc1 (stereo not shown) | 20.6
31 | CCCC1Cc2c(sc(NC(=S)NC(=O)c3ccccc3)c2C#N)CO1 (stereo not shown) | -3.63
32 | Cc1oc(-c2ccccc2)[n+]([O-])c1C.Cl | 9.51
33 | CCc1nc(SCC(=O)OC)c2c3c(sc2n1)COC(C)(C)C3 | 12
34 | COC(=O)/C(=C/c1c[nH]c2ccccc12)[N+](=O)[O-] | 16.7
35 | CCN(CC)S(=O)(=O)c1cc(NC(=O)COC(=O)c2c(C)noc2C)ccc1C | -30.6
36 | CCC(=O)N1CCc2cc(S(=O)(=O)NCCc3ccc(S(N)(=O)=O)cc3)ccc21 | 24.9
37 | CCCN(Cc1cc2ccc(C)cc2[nH]c1=O)C(=O)c1cccnc1 | -36.1
38 | O=c1[nH]cc(NCCNc2ncc(C(F)(F)F)cc2Cl)c(=O)[nH]1 | 3.6
39 | COc1ccc(C(=O)Nc2ccccc2N2CCN(C(=O)c3ccccc3)CC2)cc1Br | -8.68
40 | CCCn1c(SCc2nc3sc(C)c(C)c3c(=O)[nH]2)nc2ccccc2c1=O | 5.75
41 | CCOC(=O)c1cn(Cc2ccccc2)nn1 | 13.2
42 | Cc1ccc(NC(=O)Cn2ccsc2=N)c([N+](=O)[O-])c1.Cl | 35.1
43 | CCCn1c(SCC(=O)Nc2nc(C)cs2)nnc1-c1cccnc1 | -29.1
44 | COc1ccccc1CNC(=O)c1cn(C)c2ccc(S(=O)(=O)N3CCCC3)cc2c1=O | -7.92
45 | CC(C)C(=O)Nc1c(-c2ccc(Cl)cc2)c(=O)c2ccccc2n1C | 20.9
46 | COCCn1c(SCC(=O)N2CCCC2)nnc1C(C)C | 9.33
47 | COC(=O)c1[nH]c2cccc(C)c2c1NC(=O)CN1CCN(c2ccccc2OC)CC1 | -5.06
48 | CN1CCN(CC(O)COc2ccc(OCC(O)CN3CCN(C)CC3)cc2)CC1 (stereo not shown) | -7.27
49 | COc1ccc(-c2csc(N(CC3CCCO3)C(=O)c3ccccc3)n2)cc1 (stereo not shown) | 1.81
50 | CCOC(=O)C1=C(C)NC(C)=C(C(=O)OCC)C1C(=O)OCC(=O)N(CC)C1CCS(=O)(=O)C1 (stereo not shown) | 24.3
51 | O=C(NC1CCCCCC1)C(=S)NC1CCCCC1 | 18.1
52 | CCCCN(CC)C(=O)Cn1c(=O)sc2ccccc21 | -3.64
53 | CCc1sc(C(=O)Nc2ccsc2C(=O)OC)cc1Br | -5.86
54 | COc1ccccc1OCC(=O)OCC(=O)NCCN1C(=O)CSC1=O | -0.783
55 | O=C1N/C(=N/S(=O)(=O)c2ccccc2)S/C1=C/c1cccnc1 | 1.74
